Measurements taken from PubChem BioAssay AID493208 (National Center for Advancing Translational Sciences (NCATS), 2011).
Out of some 44,000 compounds screened, about 340 (0.77%) were called active. Roughly 5% stayed inconclusive and do not appear here. Calls follow the shape of the dose curve; as a rule, active = well fitted inhibition curve with a large enough effect; inconclusive = small, poorly fitted or top-dose-only effect; inactive = flat fitted curve, though single readings scatter. This is one part of the list.

assay: Acumen qHTS Assay for Inhibitors of the mTORC1 Signaling Pathway in MEF (Tsc2-/-, p53-/-) Cells: Sytravon; conditions: phospho-rpS6 immunofluorescence/PI, 24 h; series mostly up to 38.3 µM; activity change, negative = inhibition: at the top concentration;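 also: plate controls were DMSO for no effect and rapamycin for full effect; nearly all actives have a fitted effect of over 50% in size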
Description: NIH Molecular Libraries Probe Production Centers Network [MLPCN] NIH Chemical Genomics Center [NCGC] MLPCN Grant: NS059428-01 Assay Submitter (PI): Blenis, John; Hoffman, Greg; Harvard University NCGC Assay Overview: The mammalian target of rapamycin (mTOR) is an intracellular serine/threonine kinase Aberrant regulation of mTOR signaling plays a causative role in a number of human diseases, including cancer, benign tumors such as lymphangioleiomyomatosis (LAM) and Tuberous Sclerosis Complex (TSC), and metabolic diseases such as diabetes and obesity. This project aims to identify inhibitors of ribosomal protein S6 (rpS6) phosphorylation. The phosphorylation of rpS6 is a key event downstream of mTOR activation. The assay uses a phospho-specific antibody of phospho-rpS6 to detect inhibitors of mTOR activation. Mutations in the Tsc1 and Tsc2 genes are the underlying genetic lesions responsible for TSC, causing constitutive activation of the mTORC1 pathway and leading to profound effects on cell metabolism. Aberrant metabolism in cancer has recently received significant attention as a target to develop therapeutic agents in the treatment of cancer.1 As Tsc2-/- cells have lost the ability to respond to energy and growth factor deprivation, these cells are unable to properly down regulate cellular biosynthetic processes in response to metabolic stress, and are thus extremely sensitive to glucose deprivation-induced death.2 A central goal of this project is to explore the unique cell survival and metabolic properties of cells with Tsc1 or Tsc2 by screening for compounds that selectively target the Tsc2-/- MEFs by screening both Tsc2-/- and WT MEF cell lines. We hope to better understand these aspects of TSC physiology in order to exploit them for therapeutic benefit.
NCGC Acumen Assay Protocol Summary: For quantitative high throughput analysis of mTORC1 signaling, we developed a cell-based assay for immuno-fluorescence based detection of rpS6 phosphorylation on the Acumen Explorer that will be used a platform for the primary small molecule screen. Mouse embryonic fibroblasts (MEFs) are cultured in 1536-well plates using DMEM + 10% FBS. Twenty-four hrs after plating, test compounds (solubilized in DMSO) are delivered and incubated with the cells for 24 hrs at 37 degree Celsius. Following the incubation, media with compound is aspirated and the cells are fixed in 4% paraformaldehyde (PFA) containing PBS + 0.2% TX-100. Next, PFA is aspirated, cells are washed two times with PBS plus 0.2% TX-100 and the cells are blocked for 1 hr at room temperature (blocking buffer: LiCOR Blocking Buffer plus 0.2% TX-100). […] Cells are washed two times with PBS plus 0.2% TX-100, and stained with 10 uM propidium iodide (PI) for 20-25 minutes for cell number measurement (1:500 dilution of Hoescht staining is also added for IN Cell imaging). The plates are scanned on the Acumen Explorer laser scanning instrument (TTP Labtech) using the 488nm laser for simultaneous excitation of the Alexa-488 and PI. […] The normalized phospho-S6 staining is calculated as the ratio of the integrated Alexa 488 intensity divided by the integrated PI intensity for the single concentration rapamycin control (7.5 nM) and DMSO columns. […] Inhibition of the pathway is defined based on the normalized phospho-S6 intensity in rapamycin treated cells. Active cells are defined as those with a normalized phospho-S6 staining above this threshold, and each treatment is reported as the % positive cells in the well, where thresholds are defined by selecting wells with the highest and lowest signal and differentiating between the % non-active and % active populations. In addition to the pathway specific phospho-S6 endpoint, the number of PI stained cells from the Acumen is recorded as a measure of cell viability. The primary screen was performed with a MEF cell line in a defined genetic background, Tsc2-/-, p53-/- cell line stably transfected with an empty vector control (Tsc2-/- MEF).

| Structure (SMILES) | activity change, negative = inhibition |
| --- | --- |
| CCCn1c(=O)c2sccc2n2c(CCCC(=O)NC3CCC(C)CC3)nnc12 (stereo not drawn) | inactive: 2.62% |
| COCCOC(=O)C1=C(C)NC(=O)NC1c1cn(-c2ccccc2)nc1-c1ccccc1 (stereo not drawn) | inactive: -1.79% |
| COc1ccc(OC)c(CCNC(=O)CCc2cn(Cc3cc(C)ccc3C)c3ccccc23)c1 | inactive: -16.7% |
| O=C(Cn1c(=O)c2cccn2c2ccc(F)cc21)N1CCN(c2ccccc2F)CC1 | inactive: -4.29% |
| Cc1ccc(Cl)cc1NS(=O)(=O)c1ccc2c(c1)NC(=O)CCS2 | inactive: -0.593% |
| Fc1ccc(-n2ncc3c(NCCCn4ccnc4)ncnc32)cc1 | inactive: 5.42% |
| COc1cccc(C2NC(=O)c3n[nH]c(-c4cccs4)c32)c1 (stereo not drawn) | inactive: -18% |
| COc1ccc(Br)cc1CNC(=O)c1cnc2sc(N3CCCC3)nn2c1=O | inactive: -11.6% |
| COc1ccc(C(=O)N(Cc2cc(OC)c(OC)c(OC)c2)c2ccccn2)cc1 | inactive: -16.6% |
| O=C(Cn1c(=O)nc(-c2ccccc2)c2ccccc21)NCCc1ccc(Cl)cc1 | inactive: 0% |
| CN1CCN(C(CNC(=O)c2ccccc2F)c2ccc3c(c2)OCO3)CC1 (stereo not drawn) | inactive: -2.27% |
| Cc1cc2[nH]c(=O)c(=O)[nH]c2cc1S(=O)(=O)N1CCN(c2cccc(C(F)(F)F)c2)CC1 | inactive: -0.21% |
| COc1ccc(NC(=O)c2sc3nc(-c4cc5ccc(OC)cc5oc4=O)[nH]c(=O)c3c2C)cc1 | inactive: 3.76% |
| CCCCN(CC)CCNC(=O)CCn1cnc2onc(-c3ccc(F)cc3)c2c1=O | inactive: -13.8% |
| Cc1cccc(-n2cc(-c3ccccc3)c3c(N4CCC(C)CC4)ncnc32)c1 | inactive: 8.92% |
| COc1cc(NC(=O)NCC2CCN(Cc3ccccc3Cl)CC2)cc(OC)c1OC | inactive: -1.5% |
| COc1ccc(-c2cn3nc(N4CCCC(C(=O)Nc5cc(C)ccc5C)C4)sc3n2)cc1 (stereo not drawn) | inactive: 0.51% |
| COc1ccc(Cl)cc1NC(=O)c1cnc(SC)nc1-c1ccccc1 | inactive: -0.13% |
| Cc1ccccc1NC(=O)C(=O)NCC1(c2ccccc2)CCCC1 | inactive: -1.58% |
| CCN1CCN(c2ncc3c(n2)CCN(Cc2sccc2C)C3)CC1 | inactive: 11.5% |
| O=C(CSc1nnc2scc(-c3ccc(Cl)cc3)n12)Nc1cccc(C(F)(F)F)c1 | inactive: -16.4% |
| COc1cc(NC(=O)CC(C)S(=O)(=O)c2ccc3c(c2)CCN3C(C)=O)cc(OC)c1OC (stereo not drawn) | inactive: 3.79% |
| CCOc1ccc(Nc2nc(C)c(NC(=O)c3ccc(C)cc3)c(Nc3ccc(OCC)cc3)n2)cc1 | inactive: -16.4% |
| Cc1ccc(NC(=O)CN(C)S(=O)(=O)c2cccc3cccnc23)cc1F | inactive: -8.57% |

| Structure (SMILES) | activity change, negative = inhibition |
| --- | --- |
| COc1ccc(Cl)cc1Nc1nc2ccc(C(=O)c3ccccc3)cc2n2cnnc12 | inactive: -15.4% |
| CCOC(=O)Cc1ccc(NC(=O)N2CCc3c(sc4c3CCCC4)C2c2ccc(F)cc2)cc1 (stereo not drawn) | inactive: 0% |
| CCn1c(=O)c2cc(C(=O)N3CCN(c4cccc(OC)c4)CC3)sc2c2ccccc21 | inactive: -19% |
| CCc1ccc(C(c2ccccc2)c2c[nH]c3ccc(C)cc23)s1 (stereo not drawn) | inactive: -10.7% |
| CN(CC(=O)Nc1ccc(Cl)cc1F)S(=O)(=O)c1ccc2c(c1)n(C)c(=O)c(=O)n2C | inactive: -11.6% |
| Cc1sc2ncn(CC(=O)N3CCN(c4ccccc4)CC3)c(=O)c2c1S(=O)(=O)N1CCN(c2ncccn2)CC1 | inactive: 0.814% |
| CCc1cccc(-n2nnc(-c3nsc(NC(=O)c4ccc(C)cc4)n3)c2C)c1 | inactive: -17.2% |
| Fc1ccc(C(Nc2ccccc2Cl)c2nnc(-c3ccccc3Cl)o2)cc1 (stereo not drawn) | inactive: -22.5% |
| Cc1ccc(NC(=O)[C@H]2O[C@@H]3OC(C)(C)O[C@@H]3[C@H]3OC(C)(C)O[C@H]32)cc1F | inactive: -13.4% |
| Cc1ccc(NC(=O)c2cccc(N3CCCS3(=O)=O)c2)cc1C | inactive: 1.15% |
| CC(C(=O)Nc1ccccc1C(F)(F)F)n1nnc2sc3c(c2c1=O)CCCC3 (stereo not drawn) | inactive: -7.42% |
| CCc1ccc(CNC(=O)CSc2c3c(nc4ccc(Cl)cc24)CCCC3)cc1 | inactive: -0.268% |
| O=C(NCCn1cc(SCc2ccccc2F)c2ccccc21)c1cccs1 | inactive: -14.6% |
| CCS(=O)(=O)NCC(c1ccco1)N1CCN(c2ccccc2)CC1 (stereo not drawn) | inactive: -0.432% |
| CSc1nc(Nc2ccc(C)cc2)c(C#N)c(-c2ccccc2)n1 | inactive: -8.88% |
| Cc1ccc2c(c1)C(c1ccccc1)N(C(=O)c1ccc(S(=O)(=O)N3CCCCC3)cc1)CC(=O)N2 (stereo not drawn) | inactive: 4.83% |
| Cc1ccc(CSc2ncc(Cl)c(C(=O)Nc3nc4ccc(C)cc4s3)n2)cc1 | inactive: 3.92% |
| Oc1c(C(c2ccccc2)N2CCN(c3cccc(Cl)c3)CC2)sc2nc(-c3ccco3)nn12 (stereo not drawn) | inactive: -5.34% |
| O=c1c(=O)n(-c2ccccc2)ccn1Cc1cccc(C(F)(F)F)c1 | inactive: 3.01% |
| O=C(NCc1ccc(F)cc1)c1ccc(CS(=O)Cc2ccc(Cl)cc2)o1 (stereo not drawn) | inactive: -0.463% |
| Cc1ccc(NC(=O)c2cc3nc(-c4ccc5c(c4)OCO5)cc(C(F)(F)F)n3n2)cc1Cl | inactive: 11.9% |
| COc1ccccc1CNS(=O)(=O)c1cc(Br)cc2c1N(C(C)=O)C(C)C2 (stereo not drawn) | inactive: -0.0492% |
| O=C1COc2ccc(-c3cc(-c4ccc(F)cc4)c4c(n3)-c3cc(Cl)ccc3OC4)cc2N1 | inactive: -4.57% |
| COc1cc(Cl)c(NC(=O)c2cc(CN3CCCC3)on2)c(OC)c1 | inactive: -0.382% |
